Laboratory results from the RNAGym collection of RNA variant scans (doi:10.1093/nar/gkz1192).
Read counts are not given, so values of variants with three or more changes are uncertain.

B1: CPEB3 Ribozyme (parent)
chain: UAACAGGGGGCCACAGCAGAAGCGUUCACGUCGCAGCCCCUGUCAGAUUCUGGUGAAUCUGCGAAUUCUGCUGUAUAUCUC

Variants of: B1
Assay: self-cleavage, relative activity (ratio to wild type); higher = more cleavage; in vitro, sequencing
In short: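 CPEB3 self-cleaving ribozyme mutant libraries were made by rounds of error-prone PCR, barcoded, and transcribed in vitro with T7 RNA polymerase for 5 hours at 37°C. Cleavage occurred during transcription and a 15 min DNase I step before EDTA stop. RNAs were reverse transcribed with template switching and Illumina-sequenced, with DNA sequencing mapping barcodes to variants. Relative activity is the variant's cleaved/total read fraction divided by wild type's (minimum 5 reads), averaged across three batches.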
UAGCAGGGGGCCACAGCAGAAGCGUCCACGUCGCAGCCCCUGUCAGAUACUGGCGAAUCUGCGUAUUCUGCUGUAUAUCUC [A3G U26C U49A U54C A64U] showed a self-cleavage of 0.25.
In the case of UAGCAGGGGGCCACAGCAGAAGCGUUCACGCCGCAGCCCCUGUCAGAAUCUGGUGGAUCUGCGAAUCCUGCUGUAUAUCUC [A3G U31C U48A A56G U67C], the self-cleavage is reported as 0.08.
Variant UAGCAGGGGGCCACAGCAGAAGCGUGCACGUCGCAGCCCCUGUCAGAUUCUGGUGAAUCUGCGAAUUCAGCUGUUUAUCUC [A3G U26G U69A A75U] has a self-cleavage of 0.22.
UAGCAGGGGGCCACAGCAGAAGCGUGCACGUCGCAGCCCCUGUCAGAUUCUGGUGAAUCUGCGAAUUCUGCUGUAUAUCAC [A3G U26G U80A] showed a self-cleavage of 0.71.
UAGCAGGGGGCCACAGCAGAAGCGUUCACGCCGCAGCCCCUGUCAGAUUCUGGUGUAUCUGCGAAUUCCGCUGUAUAUCGC [A3G U31C A56U U69C U80G] gave a self-cleavage of 0.17.
For UAGCAGGGGGCCACAGCAGAAGCGUCCACGUCGCAGCCCCUGUCAGAUUCUGGUGAACCUGCGAACUCUGCUUUAUAACUC [A3G U26C U58C U66C G73U U78A], the self-cleavage was 0.1.
UAGCAGGGGGCCACAGCAGAAGCGUGCACGCCGCAGCCCCUGUCAGAUUCUGGUGAAUCUGCGAAUUCUGCAGUAUAUCUC [A3G U26G U31C U72A] showed a self-cleavage of 0.36.
In the case of UAGCAGGGGGCCACAGCAGAAGCGUUCACGCCGCAGCCCCUGUCAGAUUCUGGUUAAUCUGCGGAUUCUGCUGAAUACCUC [A3G U31C G55U A64G U74A U78C], the self-cleavage is reported as 0.58.
With UAGCAGGGGGCCACAGCAGAAGCGUUCACGCCGCAGCCCCUGUCAGAUUCUGGUGUAUCUGCGAAUUCUGCUGUAUAUCGC [A3G U31C A56U U80G] the self-cleavage was 0.62.
Variant UAGCAGGGGGCCACAGCAGAAGCGUCCACGUCGCAGCCCCUGUCAGAUUCUGGUGAAUCUGCGAAUUCUGCUGUAUAUCCC [A3G U26C U80C] has a self-cleavage of 0.75.
Variant UAGCAGGGGGCCACAGCAGAAGCGUUCACGCCGCAGCCCCCGUCAGAUUCUGGUGAAUCUGCGAAUUCUGCUGUAUAUCUC [A3G U31C U41C] has a self-cleavage of 0.29.
Work on UAGCAGGGGGCCACAGCAGAAGCGUUCACGACGCAGCCCCUGUCAGAUUCUGGUUAAUCUGCGAAUUCUGCUGUAUAUCUC [A3G U31A G55U] yielded a self-cleavage of 0.56.
In the case of UAGCAGGGGGCCACAGCAGAAGCGUUCACGCCGCAGCCCCAGUCAGAUUCUGUUGAAUCUGCGAAUUCUGCUGUGUAUCUC [A3G U31C U41A G53U A75G], the self-cleavage is reported as 0.1.
Work on UAGCAGGGGGCCACAGCAGAAGCGUGCACGUCGCUGCCCCUGUCAGAUUCUGGUGAAUCUGUGAAUUCUGCUGUACAUCUC [A3G U26G A35U C62U U76C] yielded a self-cleavage of 0.04.
For UAGCAGGGGGCCACAGCAGAAGCGUCCACGUCGCAGCCCCUGUCAGACUCUGGUGAAUCUGCGAAUUCUGCUGUACAUCUC [A3G U26C U48C U76C], the self-cleavage was 0.14.
With UAGCAGGGGGCCACAGCAGAAGCGUUCACGACGCAGCCCCUGUCAGAUUCCGGUGAAUCUGCGAAUUCUGCUGUAAUUCUC [A3G U31A U51C U76A A77U] the self-cleavage was 0.29.
UAGCAGGGGGCCACAGCAGAAGCGUUCACGCCGCAGCCCCUGUCAGAUUCUGGUGAAUCGGUGAAUUCUGCUGUAUAUCUC [A3G U31C U60G C62U] gave a self-cleavage of 0.29.
In the case of UAGCAGGGGGCCACAGCAGAAGCGUUCACGACGCAGCCCCUGUCAGGUUCUGGUGAAUCUGCGAAUUCUGCUGUAUAUCUC [A3G U31A A47G], the self-cleavage is reported as 0.71.
In the case of UAGCAGGGGGCCACAGCAGAAGCGUUCACGCCGCAGCCCCAGUCAGAUUCUGUUGUAUCUGCGAAUUCUGCAGUAUAUCUC [A3G U31C U41A G53U A56U U72A], the self-cleavage is reported as 0.07.
For UAGCAGGGGGCCACAGCAGAAGCGUUCACGACGCAGCCCCUGUCCGAUUCUGGUGAAUCUGCCAAUACUGCUGUAUAUCUC [A3G U31A A45C G63C U67A], the self-cleavage was 0.03.
Variant UAGCAGGGGGCCACAGCAGAAGCGUUCACGACGCUGCCCCCGUCAGAUUCUGGUGAAUCUGCGAAUUCUGCUGUAUACCCC [A3G U31A A35U U41C U78C U80C] has a self-cleavage of 0.12.
UAGCAGGGGGCCACAGCAGAAGCGUCCACGUCGCAGCCCCUGUCAGAUUCUGGUGAACCUGCGAACUCUGCUGUAUAUCUC [A3G U26C U58C U66C] showed a self-cleavage of 0.19.
UAGCAGGGGGCCACAGCAGAAGCGUUCACGACGCAGCCCCUGCCAGAUUCUGGUGAAUCUGAGAAUUCUGCUGUAUAUCUC [A3G U31A U43C C62A] showed a self-cleavage of 0.21.
UAGCAGGGGGCCACAGCAGAAGCGUUCACGGCGCAGCCCCUGUCAGGUUCUGGUGAAACUGCGAGUUCUGCUGUAUAUCUC [A3G U31G A47G U58A A65G] showed a self-cleavage of 0.38.
Variant UAGCAGGGGGCCACAGCAGAAGCGUCCACGUCGCAGCCCCUGUCAGAUUCUGGAGAAUCUGCGAGUUCUGCUGUAUAUCUC [A3G U26C U54A A65G] has a self-cleavage of 0.12.
For UAGCAGGGGGCCACAGCAGAAGCGUUCACGCAGCAGCCCCUGUCAGAUUCUGGUGAAUCUGCGAAUUCUGCUGUAUAUCUC [A3G U31C C32A], the self-cleavage was 0.44.
With UAGCAGGGGGCCACAGCAGAAGCGUUCACGCCGCUGCCCCUGUCAGAUUCUGGUGAAUCUGCGAAUUCUGCCGUAUAUCUC [A3G U31C A35U U72C] the self-cleavage was 0.56.
UAGCAGGGGGCCACAGCAGAAGCGUUCACGCCGCAGCCCCUGUCAGAUUCUGGUGAAUCUCCGAAUUCUGCUGUAUGUCUC [A3G U31C G61C A77G] gave a self-cleavage of 0.22.
UAGCAGGGGGCCACAGCAGAAGCGUUCACGCCGCAGCCCCUGUCAGAUUCUGGUGAAUCCGCGAAUUCUGCUGUAUACCUC [A3G U31C U60C U78C] showed a self-cleavage of 0.35.
With UAGCAGGGGGCCACAGCAGAAGCGUUCACGCCGCAGCCCUUGUCAGAUUUUGGUGAAUCUGAGAAUUCUGCUGAUUAUCUC [A3G U31C C40U C50U C62A U74A A75U] the self-cleavage was 0.18.
Variant UAGCAGGGGGCCACAGCAGAAGCGUUCACGACGCAGCCCCUGUCGGAUUCUGGUGAAUCUGCGAAUUCUGCUGUAUAUCUC [A3G U31A A45G] has a self-cleavage of 0.33.
With UAGCAGGGGGCCACAGCAGAAGCGUUCACGCCGCAGCCCCUGUCAGAUUCUGGUGAAUCUGUGAACUCUGCUGUAUAUCUC [A3G U31C C62U U66C] the self-cleavage was 0.18.
UAGCAGGGGGCCACAGCAGAAGCGUUCACGCCGCUGCCCCUGUCAGAUUCUGGCGAAUCUGCGAAUUCUGCCGUAUAUCUC [A3G U31C A35U U54C U72C] showed a self-cleavage of 0.19.
Variant UAGCAGGGGGCCACAGCAGAAGCGUUCACGGCGCAGCCCCUGUCUGAUUCUAGUGAAUCUGCGAAUUCUGCUGUAUAUCUC [A3G U31G A45U G52A] has a self-cleavage of 0.57.
